# Some of the results follow.
# B1: X56-1 (Clostridium perfringens), P26831 (protein)
# chain: MGSSHHHHHHSSGLVPRGSHMASDPNRIIATYISNRQDAPTGNPDNIFDNNASTELVYKNPNRIDVGTYVGVKYSNPITLNNVEFLMGANSNPNDTMQKAKIQYTVDGREWIDLEEGVEYTMPGAIKVENLDLKVRGVRLIATEARENTWLGVRDINVNKKEDSNSGVEF
# Key:
# Test in all cases: glycan array binding signal (z-score within array); higher = stronger binding
# Settings in all cases: glycan notation: IUPAC condensed, linker removed
# [1] = target: Fuc(a1-2)[GalNAc(a1-3)]Gal(b1-4)[Fuc(a1-3)]GlcNAc
# In short: (§1)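 Glycan array data were curated from 3228 arrays in the Consortium for Functional Glycomics database and kept only where the protein sequence was available. Glycan names were converted to IUPAC-condensed notation, and columns mapping to the same glycan were averaged. The binding signal is a within-array Z-score, averaged across arrays of the same protein sequence at different concentrations or buffers and across linkers. Negative Z-scores can be read as non-binding.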
# [2] = target: Fuc(a1-2)[GalNAc(a1-4)]Gal(b1-4)GlcNAc
# In short: as §1
# Fuc(a1-3)GlcNAc = target: Fuc(a1-3)GlcNAc
# In short: as §1
# [3] = target: Fuc(a1-3)[Gal(b1-4)]Glc6S
# In short: as §1
# [4] = target: Fuc(a1-3)[Gal(b1-4)]GlcNAc
# In short: as §1
# [5] = target: Fuc(a1-3)[Gal(b1-4)]GlcNAc(b1-3)Gal(b1-3)[Fuc(a1-4)]GlcNAc
# In short: as §1
# [6] = target: Fuc(a1-3)[Gal(b1-4)]GlcNAc(b1-4)Gal(b1-4)[Fuc(a1-3)]GlcNAc
# In short: as §1
# [7] = target: Fuc(a1-3)[Gal(b1-4)]GlcNAc(b1-4)Gal(b1-4)[Fuc(a1-3)]GlcNAc(b1-4)Gal(b1-4)[Fuc(a1-3)]GlcNAc
# In short: as §1
# [8] = target: Fuc(a1-3)[Gal(b1-4)]GlcNAc6S
# In short: as §1
# [9] = target: Fuc(a1-3)[Gal3S(b1-4)]Glc
# In short: as §1
# [10] = target: Fuc(a1-3)[Gal3S(b1-4)]Glc6S
# In short: as §1
# [11] = target: Fuc(a1-3)[Gal3S(b1-4)]GlcNAc
# In short: as §1
# [12] = target: Fuc(a1-3)[Gal3S(b1-4)]GlcNAc6S
# In short: as §1
# [13] = target: Fuc(a1-3)[GalNAc(b1-4)]Gal(b1-4)GlcNAc
# In short: as §1
# Fuc(a1-4)GlcNAc = target: Fuc(a1-4)GlcNAc
# In short: as §1
# Fuc(b1-3)GlcNAc = target: Fuc(b1-3)GlcNAc
# In short: as §1
# Gal(a1-2)Gal = target: Gal(a1-2)Gal
# In short: as §1
# Gal(a1-3)Gal = target: Gal(a1-3)Gal
# In short: as §1
# Gal(a1-3)Gal(b1-3)Glc = target: Gal(a1-3)Gal(b1-3)Glc
# In short: as §1
# Gal(a1-3)Gal(b1-3)GlcNAc = target: Gal(a1-3)Gal(b1-3)GlcNAc
# In short: as §1
# Gal(a1-3)Gal(b1-4)GlcNAc = target: Gal(a1-3)Gal(b1-4)GlcNAc
# In short: as §1
# [14] = target: Gal(a1-3)Gal(b1-4)[Fuc(a1-3)]GalNAc
# In short: as §1
# Gal(a1-3)GlcNAc = target: Gal(a1-3)GlcNAc
# In short: as §1
# [15] = target: Gal(a1-3)[Gal(a1-4)]Gal(b1-4)GlcNAc
# In short: as §1
# Gal(a1-4)Gal(b1-4)Gal = target: Gal(a1-4)Gal(b1-4)Gal
# In short: as §1
# Gal(a1-4)Gal(b1-4)GalNAc = target: Gal(a1-4)Gal(b1-4)GalNAc
# In short: as §1
# Gal(a1-4)GlcNAc = target: Gal(a1-4)GlcNAc
# In short: as §1
# Gal(a1-6)Glc = target: Gal(a1-6)Glc
# In short: as §1
# Gal(b1-2)Gal = target: Gal(b1-2)Gal
# In short: as §1
# Gal(b1-3)Gal = target: Gal(b1-3)Gal
# In short: as §1
binder,measurement,setting,value
B1,glycan array binding signal (z-score),[1],-0.123
same,glycan array binding signal (z-score),[2],0.358
same,glycan array binding signal (z-score),Fuc(a1-3)GlcNAc,-0.245
same,glycan array binding signal (z-score),[3],-0.327
same,glycan array binding signal (z-score),[4],-0.089
same,glycan array binding signal (z-score),[5],-0.339
same,glycan array binding signal (z-score),[6],-0.282
same,glycan array binding signal (z-score),[7],-0.271
same,glycan array binding signal (z-score),[8],-0.489
same,glycan array binding signal (z-score),[9],-0.199
same,glycan array binding signal (z-score),[10],0.711
same,glycan array binding signal (z-score),[11],-0.063
same,glycan array binding signal (z-score),[12],-0.341
same,glycan array binding signal (z-score),[13],0.049
same,glycan array binding signal (z-score),Fuc(a1-4)GlcNAc,-0.46
same,glycan array binding signal (z-score),Fuc(b1-3)GlcNAc,-0.409
same,glycan array binding signal (z-score),Gal(a1-2)Gal,-0.012
same,glycan array binding signal (z-score),Gal(a1-3)Gal,-0.154
same,glycan array binding signal (z-score),Gal(a1-3)Gal(b1-3)Glc,0.171
same,glycan array binding signal (z-score),Gal(a1-3)Gal(b1-3)GlcNAc,-0.153
same,glycan array binding signal (z-score),Gal(a1-3)Gal(b1-4)GlcNAc,-0.406
same,glycan array binding signal (z-score),[14],0.446
same,glycan array binding signal (z-score),Gal(a1-3)GlcNAc,-0.041
same,glycan array binding signal (z-score),[15],-0.225
same,glycan array binding signal (z-score),Gal(a1-4)Gal(b1-4)Gal,-0.325
same,glycan array binding signal (z-score),Gal(a1-4)Gal(b1-4)GalNAc,-0.104
same,glycan array binding signal (z-score),Gal(a1-4)GlcNAc,-0.355
same,glycan array binding signal (z-score),Gal(a1-6)Glc,-0.27
same,glycan array binding signal (z-score),Gal(b1-2)Gal,-0.101
same,glycan array binding signal (z-score),Gal(b1-3)Gal,0.071

# Source: the supplement of paper PMC8728848
